Laboratory results published in PubChem BioAssay AID686979 (National Center for Advancing Translational Sciences (NCATS), 2013).
Out of some 420,000 compounds screened, about 50,000 (12%) were called active. Another 26% or so got no clear call; they are omitted. Calls follow the shape of the dose curve; as a rule, active = well fitted inhibition curve with a large enough effect; inconclusive = small, poorly fitted or top-dose-only effect; inactive = flat fitted curve, though single readings scatter. The list shows a part of the results, in another mix than the full data.

Test: qHTS for Inhibitors of human tyrosyl-DNA phosphodiesterase 1 (TDP1): qHTS in cells in presence of CPT; also: nearly all actives have a fitted effect of over 55% in size
Conditions: chicken DT40 Tdp1-/-;hTDP1 cells + 20 nM CPT, ATP luminescence, 48 h; series mostly up to 46.2 µM; activity change, negative = growth inhibition: at the top concentration
Summary of the method: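 Chicken DT40 Tdp1-/- cells stably complemented with human TDP1 were seeded at 400 cells/well in medium containing 20 nM camptothecin, exposed to pin-transferred compounds, and grown at 37 °C for at least 48 hr. Viability was read as ATP luminescence.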
% is scaled to controls: 0 for no effect and ±100 for the full control effect; potency is read from the fitted curve at half-maximal effect.

Structure (SMILES)	activity change, negative = growth inhibition	Potency
COc1ccc(CNS(=O)(=O)c2cc3c4c(c2)CCN4C(=O)CC3)cc1	inactive: -20%	
C=CCOc1cccc(C2/C(=C(/O)c3ccc4c(c3)CC(C)O4)C(=O)C(=O)N2CCN2CCOCC2)c1 (stereo not given)	inactive: 30.4%	
COC(=O)c1ccc(C)c(NC(=O)CN(c2ccc3c(c2)OCO3)S(C)(=O)=O)c1	inactive: 30.7%	
CCCCn1c(N)c(N(CC(C)C)C(=O)c2cccc(S(=O)(=O)N3CC(C)OC(C)C3)c2)c(=O)[nH]c1=O (stereo not given)	inactive: 19.3%	
CCC1NC(=O)c2cc(S(N)(=O)=O)c(Cl)cc2N1 (stereo not given)	inactive: -15%	
C[C@H](NC(=O)[C@@H]1Cc2ccccc2CN1)C(=O)Nc1ccc2c(c1)OCCO2	inactive: -17.8%	
CNC(C)C(=O)NC(C(=O)N1CCCC1C(=O)Nc1ccc2ncccc2c1)C(C)C (stereo not given)	inactive: 11.8%	
Cc1cc(C(=O)OCC(=O)NC(C)c2ccccc2)c(C)o1 (stereo not given)	inactive: -0.667%	
COc1ccccc1-n1c(C)cc(/C=C2/C(=N)N3C(=NC2=O)SN=C3S(C)(=O)=O)c1C	inactive: 4.25%	
C/C(Cc1ccccc1)=N/NC(=O)CNC(=O)C(c1ccccc1)c1ccccc1	inactive: -7.14%	
CN1CCOC(c2ccccc2)c2ccccc2C1 (stereo not given)		inactive
O=C(COC(=O)c1cccs1)Nc1ccc(F)c(F)c1	inactive: -2.27%	
O=C(c1cnc2n(c1=O)CCS2)N1CCN(C(c2ccccc2)c2ccc(Cl)cc2)CC1 (stereo not given)		active: 11.6 µM
C=CCn1c(SCC(=O)c2ccccc2)nnc1-c1cc2ccccc2o1		active: 23.1 µM
CCOC(=O)c1c(C)[nH]c(C(=O)COC(=O)CCS(=O)(=O)c2ccc(C)cc2)c1C	inactive: 29.2%	
O=C(/C=C/C=C/c1ccc2c(c1)OCO2)N1CCCCC1	inactive: 3.01%	
CC1=NNC(=O)C1CCC(=O)N/N=C/C=C/c1ccccc1 (stereo not given)	inactive: 39.2%	
CC(=O)N1CCc2cc(S(=O)(=O)CCC(=O)N3CCN(c4ccccc4F)CC3)ccc21	inactive: -23%	
CCOc1ccc(-n2c(C)c3c(C)nnc(C)c3c2C)cc1		active: 2.91 µM
O=C(CN1CCN(c2cccc(Cl)n2)CC1)N1CC(O)CO1 (stereo not given)	inactive: 0.376%	
